Assay [1] addresses T1, GST-PrLZ, wild type (bacterial) (UniProt P55327).
T1 sequence: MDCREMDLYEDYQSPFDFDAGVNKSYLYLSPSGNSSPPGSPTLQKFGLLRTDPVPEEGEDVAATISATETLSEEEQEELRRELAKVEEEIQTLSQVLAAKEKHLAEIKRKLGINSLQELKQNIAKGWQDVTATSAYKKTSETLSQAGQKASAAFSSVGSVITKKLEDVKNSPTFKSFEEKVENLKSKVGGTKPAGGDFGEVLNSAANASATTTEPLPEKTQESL
Nature of the assay: pull-down; GST pull-down: purified GST-PrLZ and HA-SPOP or His-SPOP incubated 3 h at 4 °C, washed with RIPA buffer, western blot (Fig. 2c: antibody against His); both purified. (A western blot detects proteins with antibodies after separation by electrophoresis.)

Protein sequences, listed by entry. Tags and fused reporters are not part of them.
UniProt O43791: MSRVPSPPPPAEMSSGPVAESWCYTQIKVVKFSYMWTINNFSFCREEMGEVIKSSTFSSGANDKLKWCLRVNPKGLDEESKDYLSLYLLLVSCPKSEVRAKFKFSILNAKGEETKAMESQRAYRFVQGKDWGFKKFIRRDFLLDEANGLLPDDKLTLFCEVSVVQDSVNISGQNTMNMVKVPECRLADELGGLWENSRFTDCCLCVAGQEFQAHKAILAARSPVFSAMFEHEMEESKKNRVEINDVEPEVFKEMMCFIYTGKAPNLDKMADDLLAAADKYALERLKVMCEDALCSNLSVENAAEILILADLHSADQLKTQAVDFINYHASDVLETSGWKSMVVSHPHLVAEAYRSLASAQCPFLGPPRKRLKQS

Assay [2] concerns the target T2, HA-PrLZ, wild type (UniProt P55327).
T2 sequence: T1 sequence
Nature of the assay: co-IP; anti-HA agarose IP (4 h, 4 °C, EBC lysis buffer) from transfected 293T cells: HA-PrLZ with Flag-tagged BTB proteins (Fig. 2a), HA-SPOP WT or mutants with Flag-PrLZ (Fig. 3d), HA-ERK1 or HA-ERK2 with Flag-PrLZ (Fig. 5e); in some panels 20 μM MG132 for 6 h.

The target of assay [3] is T1, GST-PrLZ, wild type (bacterial). The experiment in a line: pull-down; GST-PrLZ proteins (where indicated first incubated with recombinant ERK1 and ATP for 60 min) and 35S-labeled SPOP with Glutathione Sepharose 4B beads, 3 h at 4 °C; autoradiography (Fig. 5i); only the target purified.
Assay [4] has as its target T2, HA-PrLZ, wild type. Nature of the assay: co-IP; anti-HA agarose IP (4 h, 4 °C, EBC lysis buffer) from transfected 293T cells: HA-PrLZ with Flag-tagged BTB proteins (Fig. 2a), HA-SPOP WT or mutants with Flag-PrLZ (Fig. 3d), HA-ERK1 or HA-ERK2 with Flag-PrLZ (Fig. 5e); in some panels 20 μM MG132 for 6 h. This is another data set of the same source.
Assay [5] deals with endogenous SPOP (C4-2 cells) (human (endogenous in C4-2)) (UniProt O43791). Nature of the assay: co-IP; anti-SPOP IP of endogenous proteins from C4-2 cells treated with 20 μM MG132 for 6 h (Fig. 2b).

Read-outs that look alike come from different tables or passages of the source. No constants are given. Whether binding was seen depends on the method and setting. For part of these data: In cells and extracts the contact can be indirect. Some binding calls cover weakened binding; strength is not graded here. For part of these data: Sequences can lack the tags named with a protein.

Regarding “His-SPOP (Abcam, 105599) (from UniProt O43791 1-374)”, the binding result in assay [1] is listed as “binds”.

Regarding Flag-SPOP (from UniProt O43791 1-374), the binding entry with HA-PrLZ, wild type [2] is “binds”.

Take “35S-labeled SPOP protein (from UniProt O43791 1-374)”: the binding entry in assay [3] is on record as “binds”.

B1: Flag-KLHL22 (protein, UniProt Q53GT1 1-634)
chain: MAEEQEFTQLCKLPAQPSHPHCVNNTYRSAQHSQALLRGLLALRDSGILFDVVLVVEGRHIEAHRILLAASCDYFRGMFAGGLKEMEQEEVLIHGVSYNAMCQILHFIYTSELELSLSNVQETLVAACQLQIPEIIHFCCDFLMSWVDEENILDVYRLAELFDLSRLTEQLDTYILKNFVAFSRTDKYRQLPLEKVYSLLSSNRLEVSCETEVYEGALLYHYSLEQVQADQISLHEPPKLLETVRFPLMEAEVLQRLHDKLDPSPLRDTVASALMYHRNESLQPSLQSPQTELRSDFQCVVGFGGIHSTPSTVLSDQAKYLNPLLGEWKHFTASLAPRMSNQGIAVLNNFVYLIGGDNNVQGFRAESRCWRYDPRHNRWFQIQSLQQEHADLSVCVVGRYIYAVAGRDYHNDLNAVERYDPATNSWAYVAPLKREVYAHAGATLEGKMYITCGRRGEDYLKETHCYDPGSNTWHTLADGPVRRAWHGMATLLNKLYVIGGSNNDAGYRRDVHQVACYSCTSGQWSSVCPLPAGHGEPGIAVLDNRIYVLGGRSHNRGSRTGYVHIYDVEKDCWEEGPQLDNSISGLAACVLTLPRSLLLEPPRGTPDRSQADPDFASEVMSVSDWEEFDNSSED
For the molecule B1, in the assay with HA-PrLZ, wild type [4], the binding result is “no binding”.

B2: Flag-KLHL3 (protein, UniProt Q9UH77 1-587)
chain: MEGESVKLSSQTLIQAGDDEKNQRTITVNPAHMGKAFKVMNELRSKQLLCDVMIVAEDVEIEAHRVVLAACSPYFCAMFTGDMSESKAKKIEIKDVDGQTLSKLIDYIYTAEIEVTEENVQVLLPAASLLQLMDVRQNCCDFLQSQLHPTNCLGIRAFADVHTCTDLLQQANAYAEQHFPEVMLGEEFLSLSLDQVCSLISSDKLTVSSEEKVFEAVISWINYEKETRLEHMAKLMEHVRLPLLPRDYLVQTVEEEALIKNNNTCKDFLIEAMKYHLLPLDQRLLIKNPRTKPRTPVSLPKVMIVVGGQAPKAIRSVECYDFEEDRWDQIAELPSRRCRAGVVFMAGHVYAVGGFNGSLRVRTVDVYDGVKDQWTSIASMQERRSTLGAAVLNDLLYAVGGFDGSTGLASVEAYSYKTNEWFFVAPMNTRRSSVGVGVVEGKLYAVGGYDGASRQCLSTVEQYNPATNEWIYVADMSTRRSGAGVGVLSGQLYATGGHDGPLVRKSVEVYDPGTNTWKQVADMNMCRRNAGVCAVNGLLYVVGGDDGSCNLASVEYYNPVTDKWTLLPTNMSTGRSYAGVAVIHKSL
Turning to B2, in the assay with HA-PrLZ, wild type [4], the binding entry is on record as “no binding”.

B3: Flag-PLZF (protein, UniProt Q05516 1-673)
chain: MDLTKMGMIQLQNPSHPTGLLCKANQMRLAGTLCDVVIMVDSQEFHAHRTVLACTSKMFEILFHRNSQHYTLDFLSPKTFQQILEYAYTATLQAKAEDLDDLLYAAEILEIEYLEEQCLKMLETIQASDDNDTEATMADGGAEEEEDRKARYLKNIFISKHSSEESGYASVAGQSLPGPMVDQSPSVSTSFGLSAMSPTKAAVDSLMTIGQSLLQGTLQPPAGPEEPTLAGGGRHPGVAEVKTEMMQVDEVPSQDSPGAAESSISGGMGDKVEERGKEGPGTPTRSSVITSARELHYGREESAEQVPPPAEAGQAPTGRPEHPAPPPEKHLGIYSVLPNHKADAVLSMPSSVTSGLHVQPALAVSMDFSTYGGLLPQGFIQRELFSKLGELAVGMKSESRTIGEQCSVCGVELPDNEAVEQHRKLHSGMKTYGCELCGKRFLDSLRLRMHLLAHSAGAKAFVCDQCGAQFSKEDALETHRQTHTGTDMAVFCLLCGKRFQAQSALQQHMEVHAGVRSYICSECNRTFPSHTALKRHLRSHTGDHPYECEFCGSCFRDESTLKSHKRIHTGEKPYECNGCGKKFSLKHQLETHYRVHTGEKPFECKLCHQRSRDYSAMIKHLRTHNGASPYQCTICTEYCPSLSSMQKHMKGHKPEEIPPDWRIEKTYLYLCYV
With B3, the binding result in the assay with HA-PrLZ, wild type [4] is on record as “no binding”.

B4: Flag-KLHL2 (protein, UniProt O95198 1-593)
chain: METPPLPPACTKQGHQKPLDSKDDNTEKHCPVTVNPWHMKKAFKVMNELRSQNLLCDVTIVAEDMEISAHRVVLAACSPYFHAMFTGEMSESRAKRVRIKEVDGWTLRMLIDYVYTAEIQVTEENVQVLLPAAGLLQLQDVKKTCCEFLESQLHPVNCLGIRAFADMHACTDLLNKANTYAEQHFADVVLSEEFLNLGIEQVCSLISSDKLTISSEEKVFEAVIAWVNHDKDVRQEFMARLMEHVRLPLLPREYLVQRVEEEALVKNSSACKDYLIEAMKYHLLPTEQRILMKSVRTRLRTPMNLPKLMVVVGGQAPKAIRSVECYDFKEERWHQVAELPSRRCRAGMVYMAGLVFAVGGFNGSLRVRTVDSYDPVKDQWTSVANMRDRRSTLGAAVLNGLLYAVGGFDGSTGLSSVEAYNIKSNEWFHVAPMNTRRSSVGVGVVGGLLYAVGGYDGASRQCLSTVECYNATTNEWTYIAEMSTRRSGAGVGVLNNLLYAVGGHDGPLVRKSVEVYDPTTNAWRQVADMNMCRRNAGVCAVNGLLYVVGGDDGSCNLASVEYYNPTTDKWTVVSSCMSTGRSYAGVTVIDKPL
B4: in the assay with HA-PrLZ, wild type [4], the binding result is listed as “no binding”.

B5: endogenous PrLZ (C4-2 cells) (protein, UniProt P55327 1-224)
chain: T1 sequence
In the case of B5, the binding result in assay [5] is listed as “binds”.

B6: Flag-KLHL37 (protein, UniProt O14682 1-589)
chain: MSVSVHENRKSRASSGSINIYLFHKSSYADSVLTHLNLLRQQRLFTDVLLHAGNRTFPCHRAVLAACSRYFEAMFSGGLKESQDSEVNFDNSIHPEVLELLLDYAYSSRVIINEENAESLLEAGDMLEFQDIRDACAEFLEKNLHPTNCLGMLLLSDAHQCTKLYELSWRMCLSNFQTIRKNEDFLQLPQDMVVQLLSSEELETEDERLVYESAINWISYDLKKRYCYLPELLQTVRLALLPAIYLMENVAMEELITKQRKSKEIVEEAIRCKLKILQNDGVVTSLCARPRKTGHALFLLGGQTFMCDKLYLVDQKAKEIIPKADIPSPRKEFSACAIGCKVYITGGRGSENGVSKDVWVYDTLHEEWSKAAPMLVARFGHGSAELKHCLYVVGGHTAATGCLPASPSVSLKQVEHYDPTINKWTMVAPLREGVSNAAVVSAKLKLFAFGGTSVSHDKLPKVQCYDQCENRWTVPATCPQPWRYTAAAVLGNQIFIMGGDTEFSACSAYKFNSETYQWTKVGDVTAKRMSCHAVASGNKLYVVGGYFGIQRCKTLDCYDPTLDVWNSITTVPYSLIPTAFVSTWKHLPS
On to B6, for which the binding entry with HA-PrLZ, wild type [4] was “no binding”.
